Assays:
[1] = biological target: T1, human CTLA-4 protein (human, UniProt P16410 36-161); test: ELISA on coated human CTLA-4 (1 ug/mL), secondary antibody, OD450
T1 construct: extracellular domain; the only one described is the mouse Fc-tagged ECD; also called Mouse Fc-tagged human CTLA-4 ECD; not shown: mouse Fc tag
Procedure: (§1) Cross-reactivity to human CD4, CTLA-4 or CD28 was measured by ELISA. Plates were coated with human CD4, CTLA-4 or CD28 at 1 μg/mL overnight at 4° C. […] The plates were then washed and subsequently incubated with corresponding secondary antibody for 60 min. After washing, TMB substrate was added and the color reaction was stopped by 2M HCl.

[2] = biological target: T2, His tagged human PD-1 protein (human, UniProt Q15116 in part); test: SPR (Biacore 8K), antibody captured by anti-human IgG Fc, His-tagged antigen injected, 1:1 fit
T2 construct: Analyte in SPR; also called Human PD-1 (His tag); not shown: His tag
Procedure: (§2) The chip was regenerated by 10 mM glycine (pH 1.5) after each binding cycle.
(§3) The sensorgrams of blank surface and buffer channel were subtracted from the test sensorgrams. The experimental data was fitted by 1:1 model using Langmiur analysis.

[3] = biological target: T3, His-tagged mouse PD-1 protein (mouse, UniProt Q02242 25-167); test: as above
T3 construct: Bought protein; also called Mouse PD-1 (His tag); not shown: His tag
T3 sequence (looked up): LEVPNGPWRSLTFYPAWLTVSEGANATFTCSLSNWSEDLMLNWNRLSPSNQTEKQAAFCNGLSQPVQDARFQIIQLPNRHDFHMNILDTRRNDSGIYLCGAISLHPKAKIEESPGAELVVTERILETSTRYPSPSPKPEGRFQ
Procedure: as §2, §3

[4] = biological target: T4, His tagged cynomolgus PD-1 (cynomolgus, UniProt B0LAJ3 25-170); test: as above
T4 construct: Analyte in SPR; also called Cynomolgus PD-1 (His tag)
Procedure: as §2, §3

[5] = biological target: T5, mouse Fc-tagged human LAG-3 (human, UniProt P18627 23-450); test: blocking of mouse Fc-tagged LAG-3 binding to MHC-II on Raji cells, flow cytometry
T5 construct: extracellular domain; only human LAG-3 ECD is described with a mouse Fc tag; also called mouse Fc-tagged LAG-3 protein; human LAG-3 protein; not shown: mouse Fc tag
T5 sequence (looked up): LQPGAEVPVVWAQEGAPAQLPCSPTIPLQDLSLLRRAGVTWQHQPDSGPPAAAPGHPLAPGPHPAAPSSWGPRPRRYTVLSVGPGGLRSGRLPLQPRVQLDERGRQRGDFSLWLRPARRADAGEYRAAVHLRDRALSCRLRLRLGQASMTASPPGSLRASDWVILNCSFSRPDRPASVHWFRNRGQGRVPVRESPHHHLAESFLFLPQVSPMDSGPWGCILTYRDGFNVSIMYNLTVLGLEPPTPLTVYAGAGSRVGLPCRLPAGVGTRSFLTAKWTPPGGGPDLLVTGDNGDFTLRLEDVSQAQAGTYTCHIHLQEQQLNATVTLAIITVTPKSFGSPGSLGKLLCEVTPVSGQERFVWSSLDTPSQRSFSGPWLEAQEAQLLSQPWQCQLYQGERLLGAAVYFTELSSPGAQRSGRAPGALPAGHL
Procedure: The mixture was transferred into the 96-well plates seeded with Raji cells which express MHC-II on the surface. Goat anti-mouse IgG Fc-PE antibody was used to detect the binding of LAG-3 protein to Raji cells. The MFI was evaluated by flow cytometry and analyzed by the software FlowJo.

[6] = biological target: T6, His-tagged mouse LAG-3 protein (mouse, UniProt Q61790 24-442); test: ELISA, antibody coated, His-tagged mouse LAG-3 titrated
T6 construct: extracellular domain; not shown: His tag
T6 sequence (looked up): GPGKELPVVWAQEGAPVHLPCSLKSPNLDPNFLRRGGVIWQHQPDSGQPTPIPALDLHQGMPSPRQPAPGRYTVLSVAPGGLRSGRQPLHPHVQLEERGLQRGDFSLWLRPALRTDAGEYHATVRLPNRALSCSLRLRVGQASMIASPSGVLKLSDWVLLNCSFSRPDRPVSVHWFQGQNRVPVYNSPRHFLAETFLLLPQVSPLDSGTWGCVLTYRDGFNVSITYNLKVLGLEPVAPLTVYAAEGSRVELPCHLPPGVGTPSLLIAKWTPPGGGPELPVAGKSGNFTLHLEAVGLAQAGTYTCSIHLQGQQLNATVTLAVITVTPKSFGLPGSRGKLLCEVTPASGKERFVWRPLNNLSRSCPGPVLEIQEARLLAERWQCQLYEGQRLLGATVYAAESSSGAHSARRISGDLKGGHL
Procedure: (§4) After washing, TMB substrate was added and the color reaction was stopped by 2M HCl. The absorbance at 450 nm was read using a microplate reader.

[7] = biological target: T7, Recombinant human CD4 protein (human, UniProt P01730 in part, limits assumed); test: ELISA on coated human CD4 (1 ug/mL), secondary antibody, OD450
T7 construct: Bought protein
Procedure: as §1

[8] = biological target: T6, His-tagged mouse LAG-3 protein; test: SPR (Biacore 8K), antibody captured by anti-human IgG Fc, His-tagged mouse LAG-3 injected, 1:1 fit
Procedure: as §2, §3

[9] = biological target: T8, mouse Fc-tagged human PD-1 (human, UniProt Q15116 in part); test: dual-binding ELISA after incubation in human serum at 37 C: mouse Fc-tagged human PD-1 coated, antibody titrated, then His-tagged LAG-3 and HRP anti-His antibody, OD450
T8 construct: extracellular domain; also called mouse Fc-tagged PD-1 protein; human PD-1 protein; not shown: mouse Fc tag

[10] = biological target: T9, human LAG-3 expressed on Jurkat cells with IL-2 luciferase reporter (human, UniProt P18627 23-525); test: cell-based or functional assay
T9 sequence (looked up): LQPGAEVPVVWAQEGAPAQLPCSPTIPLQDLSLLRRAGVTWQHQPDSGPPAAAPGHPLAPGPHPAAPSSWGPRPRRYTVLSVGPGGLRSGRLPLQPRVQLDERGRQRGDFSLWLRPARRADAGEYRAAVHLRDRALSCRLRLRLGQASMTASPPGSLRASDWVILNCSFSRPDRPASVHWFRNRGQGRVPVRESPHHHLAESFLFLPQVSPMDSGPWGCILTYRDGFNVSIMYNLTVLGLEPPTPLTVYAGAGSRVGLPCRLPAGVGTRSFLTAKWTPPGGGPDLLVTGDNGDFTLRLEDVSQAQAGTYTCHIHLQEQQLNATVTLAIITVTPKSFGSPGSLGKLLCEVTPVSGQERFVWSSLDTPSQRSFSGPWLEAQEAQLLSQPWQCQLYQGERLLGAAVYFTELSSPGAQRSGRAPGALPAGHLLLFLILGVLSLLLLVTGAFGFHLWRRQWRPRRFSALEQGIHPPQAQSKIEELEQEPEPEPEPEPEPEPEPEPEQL

[11] = biological target: T10, human CD28 protein (human, UniProt P10747 19-152); test: ELISA on coated human CD28 (1 ug/mL), secondary antibody, OD450
T10 construct: extracellular domain; the only one described is the mouse Fc-tagged ECD; also called Mouse Fc-tagged CD28 ECD; not shown: mouse Fc tag
Procedure: as §1

[12] = biological target: T8, mouse Fc-tagged human PD-1; test: ELISA, antibody coated, mouse Fc-tagged human PD-1 titrated
T8 sequence (Q15116 25-170): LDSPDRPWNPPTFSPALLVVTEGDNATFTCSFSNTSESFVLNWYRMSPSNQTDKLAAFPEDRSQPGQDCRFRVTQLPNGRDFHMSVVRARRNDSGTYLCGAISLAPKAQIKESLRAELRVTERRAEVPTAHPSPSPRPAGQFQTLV
Procedure: (§5) The plates were then washed and subsequently incubated with HRP-labeled goat anti-mouse IgG antibody for 1 hour. After washing, TMB substrate was added and the color reaction was stopped by 2M HCl. The absorbance at 450 nm was read using a microplate reader.

[13] = biological target: T11, His-tagged cynomolgus LAG-3 (cynomolgus); test: ELISA, antibody coated, His-tagged cynomolgus LAG-3 titrated
T11 construct: Bought protein; also called Cynomolgus LAG-3 (His tag); cynomolgus LAG-3 protein
Procedure: as §4

[14] = biological target: T5, mouse Fc-tagged human LAG-3; test: ELISA, antibody coated, mouse Fc-tagged human LAG-3 titrated
Procedure: as §5

[15] = biological target: T12, Human LAG-3 without tag (human, UniProt P18627 23-450); test: SPR (Biacore 8K), antibody immobilized on CM5, untagged human LAG-3 injected, single-cycle kinetics, 1:1 fit
T12 construct: extracellular domain; also called untagged LAG-3 ECD protein
T12 sequence (looked up): T5 sequence (looked up)
Procedure: The chip was regenerated with 10 mM glycine (pH 1.5).
as §3

[16] = biological target: T13, PD-1 expressed on CHO-S cells (Homo sapiens (Human), UniProt Q15116 25-288); test: blocking of mFc-tagged PD-L1 binding to PD-1 expressing CHO-S cells, flow cytometry
T13 construct: The making of this cell line is not described; also called PD-1 expressing CHO-S cells; PD-1 expressing cells
Procedure: The mixture was transferred into the 96-well plates seeded with PD-1 expressing CHO-S cells. […] The MFI was evaluated by flow cytometry and analyzed by the software FlowJo.

[17] = biological target: T3, His-tagged mouse PD-1 protein; test: ELISA, antibody coated, His-tagged mouse PD-1 titrated
Procedure: as §4

[18] = biological target: T14, cynomolgus PD-1 expressed on 293F cells (cynomolgus, UniProt B0LAJ3 25-288); test: flow cytometry on 293F cells expressing cynomolgus PD-1
T14 construct: also called cell surface cynomolgus PD-1
Procedure: MFI of the cells was measured by flow cytometry and analyzed by FlowJo (version 7.6.1).

T1 sequence (P16410 36-161): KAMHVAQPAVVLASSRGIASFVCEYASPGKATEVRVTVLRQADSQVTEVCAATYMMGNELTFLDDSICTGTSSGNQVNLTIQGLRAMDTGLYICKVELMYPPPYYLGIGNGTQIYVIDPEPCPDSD

B1: W3659-U14T4.G1-1.uIgG4.SP (bispecific antibody)
chain: QVQLVESGGGVVQPGGSLRLSCAASDSIDSLVNMGWYRQAPGKQRELVALIATYITHYADFVKGRFTISRDNSKNTLYLQMNSLRAEDTAVYYCYARNIIVDYWGQGTLVTVSS[letters of human IgG4 Fc with S228P (EU numbers) left out]GGGGSGGGGSGGGGSGGGGSGGGGSGGGGSGGGGSQVQLVESGGGVVQPGGSLRLSCAASGLTLSQYTMGWFRQAPGKERELVAAIHWTSSVTDYADSVYGRFTISRDDSKNTGYLQMNSLRAEDTAVYYCAATHYYTHRGPFDYWGQGTLVTVSS
notes: also called PD-1×LAG-3 bispecific antibody; PD-1×LAG-3 antibody
**Q.** Which results are given for B1?
**A.** binding result [1]: no binding (tested: 6.7 nM); Kd [2]: 2.92 nM; koff [2]: 0.000736 s⁻¹; kon [2]: 252000 M⁻¹ s⁻¹; Kd [3]: 32.9 nM; koff [3]: 0.00499 s⁻¹; kon [3]: 152000 M⁻¹ s⁻¹; Kd [4]: 8.45 nM; koff [4]: 0.00166 s⁻¹; kon [4]: 197000 M⁻¹ s⁻¹; EC50 [5]: 1.39 nM; EC50 [6]: 0.87 nM; binding result [7]: no binding (tested: 6.7 nM); Kd [8]: < 0.0051 nM; koff [8]: < 1e-05 s⁻¹; kon [8]: 1.96e+06 M⁻¹ s⁻¹; EC50 (read off the curve) [9]: ~0.1 nM; EC50 of IL-2 pathways enhancement in LAG-3 expressing Jurkat [10]: 0.84 nM; binding result [11]: no binding (tested: 6.7 nM); EC50 [12]: 0.07 nM; EC50 [13]: 1.21 nM; EC50 [14]: 0.32 nM; Kd [15]: 0.301 nM; koff [15]: 9.03e-05 s⁻¹; kon [15]: 300000 M⁻¹ s⁻¹; EC50 [16]: 0.58 nM; EC50 [17]: 0.26 nM; EC50 [18]: 0.36 nM

Source: patent US20220213192A1 (WUXI BIOLOGICS IRELAND, published 2022)
